# PMC9911399, “Two distinct binding modes provide the RNA-binding protein RbFox with extraordinary sequence specificity”
# Positions count from the first letter of the chain named. This is one part of the list.
# B1: GGCACCA (DNA:RNA)
# RNA: GGGAGACCGGAAUUCAGAUUGUCCGGCACCAUUAAAUCCCGUCGUAGCCACCA
# DNA 1: CAATCTGAATTCCGGTCTCCC
# DNA 2: TGGTGGCTACGACGGGATT
# B2: GUGUCAA (DNA:RNA)
# RNA: B1 RNA with G26U, C27G, A28U, C30A
# DNA 1: CAATCTGAATTCCGGTCTCCC
# DNA 2: TGGTGGCTACGACGGGATT
# B3: CAGCAUA (DNA:RNA)
# RNA: B1 RNA with G25C, G26A, C27G, A28C, C29A, C30U
# DNA 1: CAATCTGAATTCCGGTCTCCC
# DNA 2: TGGTGGCTACGACGGGATT
# B4: GAGGUCG (DNA:RNA)
# RNA: B1 RNA with G26A, C27G, A28G, C29U, A31G
# DNA 1: CAATCTGAATTCCGGTCTCCC
# DNA 2: TGGTGGCTACGACGGGATT
# B5: UCUAUCA (DNA:RNA)
# RNA: B1 RNA with G25U, G26C, C27U, C29U
# DNA 1: CAATCTGAATTCCGGTCTCCC
# DNA 2: TGGTGGCTACGACGGGATT
# B6: UCGCGUU (DNA:RNA)
# RNA: GGGAGACCGGAAUUCAGAUUGUCCUCGCGUUUUAAAUCCCGUCGUAGCCACCA
# DNA 1: CAATCTGAATTCCGGTCTCCC
# DNA 2: TGGTGGCTACGACGGGATT
# B7: CUUUGAU (DNA:RNA)
# RNA: B6 RNA with U25C, C26U, G27U, C28U, U30A
# DNA 1: CAATCTGAATTCCGGTCTCCC
# DNA 2: TGGTGGCTACGACGGGATT
# B8: CUGUGUG (DNA:RNA)
# RNA: B6 RNA with U25C, C26U, C28U, U31G
# DNA 1: CAATCTGAATTCCGGTCTCCC
# DNA 2: TGGTGGCTACGACGGGATT
# B9: UCCUUCA (DNA:RNA)
# RNA: B1 RNA with G25U, G26C, A28U, C29U
# DNA 1: CAATCTGAATTCCGGTCTCCC
# DNA 2: TGGTGGCTACGACGGGATT
# Molecular target: T1, RBFOX1 RRM (Homo sapiens, UniProt Q9NWB1 109-208)
# T1 sequence: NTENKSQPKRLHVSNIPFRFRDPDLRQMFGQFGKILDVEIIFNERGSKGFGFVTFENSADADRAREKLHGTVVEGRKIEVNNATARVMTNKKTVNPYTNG
# Test: EMSA; HiTS-Eq, 1 nM pool, 10 min; buffer printed only for the single-RNA assays: 10 mM Tris pH 7.5, 150 mM NaCl, 3.4 mM EDTA, 0.001% NP-40, 30 C
# Conditions: tags: His6 N-terminal (pET28a); label: 5' 32P
# Method in brief: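 Purified RbFox RRM, wild type or mutant, was incubated for 10 min in 50 µL with 1 nM of a 5′-radiolabelled RNA pool carrying 7 randomized nucleotides, whose flanks were annealed to DNA oligonucleotides, over a series of increasing protein concentrations. Unbound RNA was resolved on 8% native PAGE, cut out, reverse-transcribed, barcoded by PCR and sequenced on an Illumina HiSeq 2500. Relative association constants were derived from changes in read counts for each RNA species versus the control reaction and normalised to the cognate motif.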
row,Binder,binding signal
1,B1,0.00552 KA relative to UGCAUGU
2,B2,0.00628 KA relative to UGCAUGU
3,B3,0.00331 KA relative to UGCAUGU
4,B4,0.0183 KA relative to UGCAUGU
5,B5,0.00253 KA relative to UGCAUGU
6,B6,0.018 KA relative to UGCAUGU
7,B7,0.0135 KA relative to UGCAUGU
8,B8,0.027 KA relative to UGCAUGU
9,B9,0.00389 KA relative to UGCAUGU
